Here are results for 93 molecules from PubChem BioAssay AID485344 (National Center for Advancing Translational Sciences (NCATS), 2010).

Screen size: about 340,000 compounds; about 6,900 (2%) were called active. No stated cut-off is given here; in the data, active means inhibition above about 30%; inactive means below that, where a call was filed. The entries are a selection whose mix differs from that of the whole data set. Where no call is shown, the source filed none.

Sequence of UniProt P14416 (P14416 whole entry, looked up): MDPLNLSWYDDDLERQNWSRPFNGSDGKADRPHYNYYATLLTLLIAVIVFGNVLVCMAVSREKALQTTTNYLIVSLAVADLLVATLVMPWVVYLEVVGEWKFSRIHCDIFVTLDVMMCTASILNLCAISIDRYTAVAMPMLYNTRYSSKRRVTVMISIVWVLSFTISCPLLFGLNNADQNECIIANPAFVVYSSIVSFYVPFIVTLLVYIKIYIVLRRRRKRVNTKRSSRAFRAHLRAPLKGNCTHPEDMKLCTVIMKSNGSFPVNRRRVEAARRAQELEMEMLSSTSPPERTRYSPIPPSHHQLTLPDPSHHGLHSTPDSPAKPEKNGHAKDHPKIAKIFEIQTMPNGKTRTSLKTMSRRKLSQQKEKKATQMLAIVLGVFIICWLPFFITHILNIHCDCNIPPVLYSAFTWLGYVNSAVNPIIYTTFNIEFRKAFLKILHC

The target in the assay is D(2) dopamine receptor (Homo sapiens) (UniProt P14416). The experiment in a line: HTS Assay for Allosteric Antagonists of the Human D2 Dopamine Receptor: Primary Screen for Antagonists. Further: 0% is about no effect. To be noted: HEK293 TREx D2 cells, calcium flux, dopamine EC80; at 10 µM; stronger effect = higher value. The method, boiled down:
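Antagonism is scored as inhibition of an EC80 dopamine-evoked calcium signal in a force-coupled, tetracycline-inducible HEK293 T-REx D2 line, with compound present 180 s before agonist.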
Take `Cc1ccc(NC(=O)CCCn2c(=O)c3cccn3c3ccccc32)cc1C`: the inhibition is -8.53%.
The result for `CC(C)CC(=O)n1nc(-c2cccnc2)nc1NCc1ccc(F)cc1` reads -21.2%.
In the case of `COc1cccc(-c2nnc(SCC(=O)N3CCC(C)CC3)o2)c1` it was -10.9%.
In the case of `O=C(OCc1cc(=O)n2nc(C3CCCCC3)sc2n1)c1ccccc1Cl` it was 0.0689%; in that of `COc1ccc(CC(=O)NCc2ccc3c(c2)CCN3C(C)=O)cc1`, -14%; in that of `COc1ccc(-c2nc(SCC(=O)Nc3ccc4c(c3)OCCO4)c(-c3ccc(F)cc3)[nH]2)cc1OC`, -1.61%.
For `CC1=C(C(N)=O)C(c2ccc(F)cc2)n2nc(-c3ccccc3Cl)nc2N1` (stereo not drawn), the inhibition worked out at 0.982%.
In the case of `CCC(CC)C(=O)Nc1ccc2nc(SCC(=O)N3CCc4ccccc43)sc2c1` it was 8.12%; in that of `Cc1ccc(CNC(=O)CN(c2cccc(C)c2C)S(=O)(=O)c2ccccc2)cc1`, -5.38%; in that of `CCCCNc1ccc(-c2nc(-c3ccco3)no2)cc1[N+](=O)[O-]`, -18.8%.
As for `CCOC(=O)c1c(-c2ccc(C)cc2)csc1NC(=O)c1cc(-c2ccc(C)c(F)c2)on1`, the inhibition is 7.92%.
As to `C/C(=N\NC(=O)c1c(Cl)c(C)nn1C)c1cccc(NC(=O)c2cccc(F)c2)c1`, the inhibition was active: 49.3%.
In the case of `CCOc1ccc(C(=O)Nc2cccc(NC(=O)c3ccc(C(C)(C)C)cc3)c2)cc1Br` it was 2.1%; in that of `CC(=O)c1cccc(NC(=O)C2CCCN(C(=O)c3cnn(-c4ccccc4)c3-n3cccc3)C2)c1` (stereo not drawn), -4.99%.
The result for `Cc1cccc(N2CCN(S(=O)(=O)c3cc(Cl)ccc3Cl)CC2)c1C` reads -2.61%.
The result for `O=C(CN1C(=O)c2cccnc2Oc2ccc(Cl)cc21)NCCc1ccccc1` reads 10%; that for `CCCCC(=O)NCc1ccc2c(c1)cc(C)n2C`, active: 33.9%; that for `Cc1ccc(NC(=O)CN2C(=O)COc3ccc(S(=O)(=O)NC4CCCC4)cc32)cc1Cl`, 1.33%.
Turning to `CC(C)(C)C(=O)Cn1c(=O)n(-c2ccccc2)c(=O)c2c3c(sc21)CCC3`, the inhibition is -1.1%.
`Cc1cc(NC(=O)CSc2ncc(C(=O)Nc3ccc(Cl)cc3)c(=O)n2C)no1`: the inhibition is -7.04%.
In the case of `COc1ccc(S(=O)(=O)c2c(O)c3ccc(C(=O)NCc4ccc(Cl)cc4)cc3[nH]c2=O)cc1` it was -5.58%; in that of `CCOC(=O)C1CCN(C(=O)Cn2ncc3c4ccccc4n(Cc4ccc(F)cc4)c3c2=O)CC1`, -0.274%.
`Cc1csc2nc(COc3ccc(NC(=O)COc4ccccc4)cc3)cc(=O)n12`: the inhibition stood at 5.5%.
In the case of `O=C(NC1CCN(Cc2ccccc2)CC1)c1ccccc1OCc1ccccc1` it was active: 85.6%; in that of `Cc1ccc2oc3c(c(=O)c2c1)C(c1ccc([N+](=O)[O-])cc1)N(CCCN1CCOCC1)C3=O` (stereo not drawn), 7.74%; in that of `CCN(Cc1ccccc1)C(=O)Cn1c(=O)n(-c2cccc(C)c2)c(=O)c2c1c1cc(C)ccc1n2C`, 4.63%.
Regarding `C=CCc1ccccc1OCc1nc2ccccc2n1CC`, the inhibition was 12.3%.
In the case of `COc1cc2[nH]c(=O)n(CCC(=O)N3CCN(c4ccc(Cl)cc4)CC3)c(=O)c2cc1OC` it was -15.9%; in that of `CCn1nc(-c2ccccc2)c(-c2ccccc2)c(C(=O)Nc2ccccc2C#N)c1=O`, -6.45%; in that of `Cc1cc(C)c(/C=C/c2onc(C)c2S(=O)(=O)N2CCC(C(=O)NCc3ccccc3Cl)CC2)c(C)c1`, -28%.
For the molecule `Cc1cc(C)c2c(=O)cc(C(=O)Nc3c(C)n(C)n(-c4ccccc4)c3=O)oc2c1`, the inhibition was -8.7%.
In the case of `O=C(CCC1N=C2c3ccccc3N=C(SCc3cccc(Cl)c3)N2C1=O)N1CCN(c2ccccc2)CC1` (stereo not drawn) it was -1.17%; in that of `COc1ccc(C(=O)c2c(N)c(-c3nc(-c4ccc(OC)cc4)cs3)c3ccccn23)cc1`, 11.3%; in that of `COc1ccc(Br)cc1CNC(=O)c1ccc2c(c1)nc1n2CCC(C)C1` (stereo not drawn), -1.25%.
As for `O=C(Cn1ccn(-c2ccc(F)c(F)c2)c(=O)c1=O)NCCc1ccccc1`, the inhibition was -13.2%.
In the case of `CC(=O)c1cccc(NC(=O)CCc2c(C)nc3c(c(C)nn3-c3ccccc3)c2C)c1`, the inhibition is -5.62%.
As to `Cc1cc(C)cc(NC(=O)c2cc(S(=O)(=O)N3CCC(C)CC3)cn2C)c1`, the inhibition worked out at 9.9%.
The result for `CCOc1ccc(N(CC(=O)Nc2ccccc2CC)S(=O)(=O)c2c(C)noc2C)cc1` reads -10.7%.
Consider `Cc1ccc(Cl)cc1NC(=O)C1CCN(S(=O)(=O)c2cccc3nonc23)CC1`, for which the inhibition worked out at 12.6%.
Turning to `COc1cccc(Cn2c(=O)n(CCc3ccccc3)c(=O)c3c2c2cc(OC)ccc2n3C)c1`, the inhibition was -11.2%.
The result for `COc1ccc(NC(=O)c2c(NC(=O)c3ccncc3)sc3c2CCC(C(C)(C)C)C3)cc1` (stereo not drawn) reads -5.88%.
The result for `COc1ccc(C(=O)NNc2ncnc3c2cnn3-c2ccc(C)c(Cl)c2)cc1` reads 13.5%.
`Cc1ccc(-c2nn(-c3cccc(F)c3)cc2CN2CCN(c3ccccn3)CC2)o1`: the inhibition was active: 80.2%.
For the molecule `Cc1cccc(NC(=O)CSc2nc3ccccc3nc2N2CCCCC2)c1C`, the inhibition is -3.71%.
The result for `COc1cc(NC(=O)C(Cc2ccccc2)NS(=O)(=O)c2cccc3nsnc23)cc(OC)c1` (stereo not drawn) reads -7.1%.
The result for `COc1ccc(OC)c(C2CC(=O)Nc3ccc4ccccc4c32)c1` (stereo not drawn) reads 14.3%.
In the case of `COc1ccc(-c2cn3c(n2)sc2cc(C(=O)NCc4ccccc4)ccc23)cc1` it was -15.9%; in that of `CC1Cc2cc(S(=O)(=O)CCC(=O)Nc3ccc(OC(F)(F)F)cc3)ccc2N1C(=O)C1CC1` (stereo not drawn), 11%.
For `CCN(C(=O)CCS(=O)(=O)c1cc(Br)cc2c1N(C(=O)C1CC1)CC2)c1cccc(C)c1`, the inhibition was found to be 19.2%.
For `COc1ccc(Cc2nc3ccc(C(=O)NCCc4ccc(Cl)cc4)cc3o2)cc1`, the inhibition was -19.2%.
As to `COc1ccc(C2c3cc(OC)c(OC)cc3CC(=O)N2c2cccc(C#N)c2)cc1` (stereo not drawn), the inhibition was -7.55%.
In the case of `CCOCCCn1c(SCC(=O)Nc2ccccc2OC)nc2c(oc3ccccc32)c1=O`, the inhibition was determined as 7.22%.
In the case of `Cc1ccc(C)c(C(=O)N2CCC(c3nc4c(nnn4Cc4ccccc4)c(=O)[nH]3)CC2)c1` it was 15.1%.
The result for `COc1ccccc1C1=Nn2c(nc3sc(C(=O)Nc4ccccc4Cl)c(C)c3c2=O)SC1` reads 2.41%.
The result for `CCOc1ccccc1N1CC(c2nc3ccccc3n2CCCCOc2ccccc2)CC1=O` (stereo not drawn) reads -0.363%.
On to `CCOc1ccc(NC(=O)c2oc3ccccc3c2NC(=O)C(C)Oc2ccccc2)cc1` (stereo not drawn), for which the inhibition stood at 11.7%.
In the case of `CC(C)Cn1c(SCc2cccc(F)c2)nc2ccsc2c1=O` it was 10%; in that of `CCOc1ccc(CNC(=O)c2cccc(Nc3nc4ccccc4n4nnnc34)c2)cc1OC`, -6.3%.
In the case of `CC(=O)c1cc2c(cc1N/C(=N/S(=O)(=O)c1ccc(C)cc1)c1ccc(Cl)cc1)OCO2` it was 15.9%; in that of `Cc1ccc(Cn2ncc3c(N4CCN(C)CC4)ncnc32)cc1`, active: 54.6%; in that of `Cc1ccc2c(=O)cc(C(=O)Nc3ccc(S(=O)(=O)N4CCCC(C)C4)cc3)oc2c1C` (stereo not drawn), -7.93%.
The result for `COc1ccc(-c2noc(C3CC(=O)N(c4ccc5c(c4)OCCO5)C3)n2)c(OC)c1` (stereo not drawn) reads 9.36%; that for `COc1cccc(NS(=O)(=O)c2cc(-c3cnc(C4CC4)o3)ccc2C)c1`, -0.731%.
`COc1ccc(CCNC(=O)CSc2cn(CCNC(=O)c3ccc(OC)c(OC)c3)c3ccccc23)cc1OC`: the inhibition was found to be 7.45%.
The result for `O=C(O)CSc1nc2ccccc2nc1N1CCCCC1` reads 20.6%.
In the case of `CCc1ccccc1NC(=O)[C@H](Cc1ccccc1)N1Cc2ccccc2C1=O` it was -3.84%.
In the case of `COC(=O)c1c(NC(=O)/C(C#N)=C/c2ccc(OC)cc2)sc2c1C(C(=O)OC)CC2` (stereo not drawn), the inhibition came out at 1.49%.
As to `CCOc1ccc(Nc2oc(/C=C/c3cc(OC)c(OC)c(OC)c3)nc2C#N)cc1`, the inhibition turned out to be 26.7%.
Regarding `Cc1nn(Cc2ccc([N+](=O)[O-])cc2)c(=O)n1-c1c(F)cccc1F`, the inhibition is active: 36.9%.
Regarding `CCOc1ccc(NC(=O)CSc2nc3ccccc3c(=O)n2CCC(=O)NC2CCCCC2)cc1`, the inhibition is -7.93%.
In the case of `COc1ccc(NC(=O)CN(C)S(=O)(=O)c2cnc[nH]2)cc1` it was -0.3%; in that of `COc1cc(C(=O)NCCSc2c(C)[nH]c3ccccc23)cc(OC)c1OC`, -3.73%; in that of `O=C(COC(=O)c1cc(-c2cccs2)nc2ccccc12)c1ccc(Cl)cc1`, -20.3%.
The result for `CC1CN(CCn2cnc3c(N)ncnc32)CC(C)O1` (stereo not drawn) reads active: 45.8%; that for `O=C(NC1CC(=O)N(c2ccc(Cl)cc2)C1)C1CCCCC1` (stereo not drawn), -2.5%.
The result for `CCOc1cccc(C2c3c(oc4cc(C)c(C)cc4c3=O)C(=O)N2c2nc(C)c(C)s2)c1` (stereo not drawn) reads -0.362%; that for `Cc1ccc(NC(=O)CN2C(=O)C(C)(C)c3cc(S(=O)(=O)N4CCCCC4)ccc32)c(Br)c1`, -3.31%; that for `COc1cccc(-c2cc(C(=O)Nc3cccnc3Cl)no2)c1`, -5.5%.
Consider `COc1ccc(N2C(=O)CCSC23C(=O)N(Cc2ccc(F)cc2)c2ccccc23)cc1Cl` (stereo not drawn), for which the inhibition is -7.13%.
For the molecule `COc1cccc(NC(=O)N2CCC(CN3CCOCC3)CC2)c1`, the inhibition is -9.49%.
Turning to `CCC(C)NC(=O)Cn1cnc2sc(C)c(S(=O)(=O)N3CCN(c4ccccc4OC)CC3)c2c1=O` (stereo not drawn), the inhibition amounted to 19.5%.
Consider `Cc1c(C(=O)Nc2cccc(Cl)c2)oc2ccc(S(=O)(=O)N3CCOCC3)cc12`, for which the inhibition is -9.86%.
In the case of `CCc1ccccc1NC(=O)Cn1c(=O)ccc2cc(S(=O)(=O)N3CCC(C)CC3)ccc21` it was 13.2%.
Regarding `CCC(C)(C)NC(=O)CN(Cc1ccc2c(c1)OCO2)C(=O)CCC(=O)Nc1nccs1`, the inhibition was active: 40.8%.
The result for `Cc1ccc(CCNC(=O)CN2N=C(c3ccc(C)cc3)CCC2=O)cc1` reads -3.7%; that for `Cc1cccc(N2CCN(S(=O)(=O)c3c(C)nc4scc(C)n4c3=O)CC2C)c1` (stereo not drawn), 7.96%; that for `CSc1ccc(/C=C/C(=O)OCC(=O)N2CCN(S(=O)(=O)c3ccc(C)cc3C)CC2)cc1`, active: 40.6%.
For the molecule `CCOC(=O)c1sc(NC(=O)c2nc3nc(C)cc(C(F)F)n3n2)c(C(=O)OC)c1C`, the inhibition was -3.36%.
The result for `CC1CCN(C(=O)c2ccc(NC(=O)c3nsc4ccccc34)cc2)CC1` reads -8.88%.
Consider `CCC(=O)N1CCc2cc(CNS(=O)(=O)c3cc(Cl)ccc3OC)ccc21`, for which the inhibition is -8.2%.
In the case of `COc1ccc(Br)cc1CNC(=O)CCSCc1ccc(Cl)cc1` it was 7.9%; in that of `CCN1CCN(c2cc(C)c3cc(NC(=O)c4cc(OC)cc(OC)c4)ccc3n2)CC1`, -2.74%.
With `Cc1ccc(OCCn2c(COc3ccc(Cl)cc3)nc3ccccc32)cc1`, the inhibition is 3.45%.
